# Reference: paper PMC10668032
# The other results are listed elsewhere or left out. At the low end of the ranking the order means little.
# Target: SIX1-Q177R homeodomain (UniProt Q15475)
# Test: universal protein binding microarray
# Details: Universal all-10-mer PBM (8x60K, AMADID 030236), 300 nM GST-tagged protein, Alexa Fluor 488 anti-GST; buffer, salt, pH and temperature not stated; high values mean tight binding; most listed sequences are background and not binding sites; double strand, one strand shown
row,Sequence,binding signal [E-score]
1,AAGACAAC,-0.0692
2,AGGCCGCG,-0.335
3,CATGAACA,0.0466
4,AGATCACC,-0.139
5,AAACGTCA,-0.309
6,AGGGGTCC,0.178
7,TGGTCAAA,-0.238
8,GGGTCGCA,0.0215
9,GGTCGCGA,-0.0426
10,ATGGAAAA,0.0701
11,CGCTTCCA,-0.145
12,ACTCATCA,-0.29
13,AAGCCCAT,-0.154
14,GTCGATGA,-0.0796
15,CACACACA,0.184
16,TCCAGGCA,-0.0314
17,ATAGAAGG,0.0135
18,CGCGACAA,-0.12
19,GAAACCAA,-0.062
20,GAAGGGCC,-0.225
21,AACTAGTG,0.135
22,GCCCGAGA,-0.0128
23,ACCAGTCA,0.0218
24,TACGGATA,0.119
25,AATGTTGT,-0.234

row,Sequence,binding signal [E-score]
1,CTTACCAC,-0.0117
2,ATACGTCC,0.0352
3,AACAATTC,-0.238
4,ACATCGGG,-0.0903
5,CATGGGAC,-0.0521
6,CCCTCGCA,0.0759
7,ATTACAGA,-0.195
8,CTAACGAG,-0.0965
9,AAGTTGTG,-0.127
10,AAGTCGCC,-0.16
11,CCTATATA,-0.122
12,TCTAAGCA,-0.171
13,GCCGCCGA,0.0761
14,GGGGTCTA,0.229
15,ATGCAGTC,-0.109
16,ACTAGCCT,-0.199
17,AAGCTCGA,-0.136
18,ATCAGTAA,0.164
19,CATGTAAA,-0.13
20,ACGACCAC,0.0943
21,GACGACTC,0.146
22,ATCTGGCA,-0.152
23,TCGCGGAA,0.0246
24,GCACTGTA,-0.117
25,TATCAAAA,0.00255

row,Sequence,binding signal [E-score]
1,CTAACTTA,-0.188
2,CAATCGGA,0.118
3,AAGGACCG,-0.282
4,CTACACTA,0.401
5,TCCTATCA,0.147
6,CAGGCTTA,-0.297
7,AAGACCAC,-0.0924
8,GAGATTTA,-0.0534
9,TATCGCGA,-0.156
10,AGATCACT,-0.0196
11,ACAATATC,-0.124
12,AGTATCTC,0.0384
13,ACTGTGAA,-0.148
14,AACGAACG,-0.267
15,CGATACTA,0.157
16,ACATAACA,0.0873
17,AACGTTCC,-0.24
18,ACTCACTG,-0.0302
19,GCCAACAC,0.369
20,CAGTAGGC,-0.218
21,AAGCTAAC,-0.0313
22,CTTTCTCC,-0.265
23,ACTAAAAG,-0.0131
24,CCTCATCG,-0.014
25,AGCATAAC,0.0403

row,Sequence,binding signal [E-score]
1,TAGCGAGA,-0.195
2,AAGCCTAC,-0.0415
3,AAACAGAA,-0.276
4,AATAGGAG,-0.0112
5,AAGAAAGG,-0.0237
6,CACTGCAA,0.109
7,CCTTAGAC,0.0476
8,AACTGCTT,-0.242
9,CGCGCGCC,-0.0976
10,ACCCTAGG,0.152
11,ACGCGAGT,0.162
12,ATAGATTA,-0.0436
13,CTAGTATC,0.161
14,ACGCTGAA,-0.0857
15,AGCACACA,0.0361
16,GCGCGTCA,-0.1
17,ATCAACAG,-0.125
18,AAGAAGCG,-0.266
19,CAACAACG,0.0791
20,AAAAAACG,-0.209
21,TAGTAACA,0.0863
22,TATGTAGA,-0.0829
23,CCAAAAAC,0.0495
24,GCTTCTAC,-0.0105
25,CAAACAAG,-0.0843

row,Sequence,binding signal [E-score]
1,ACGAAAAA,-0.00654
2,GGAGCGAA,-0.186
3,ACCTGTAC,-0.0174
4,AATAGCAA,-0.141
5,AACTTGAG,-0.173
6,CTTCCAAC,0.106
7,GGTCCACC,-0.0493
8,CTTGGTCA,-0.114
9,ATTGTTCC,-0.205
10,CACTCGCC,0.139
11,GTCGGAAA,0.0595
12,AGGTCCCA,-0.139
13,AATCCAAA,-0.141
14,ACTGTGGA,-0.00679
15,GAATGGTC,-0.0206
16,AACATGCT,-0.176
17,CCGAGTCC,0.0012
18,ATCACAGG,-0.00754
19,CACGAACA,0.25
20,CCACACCA,0.393
21,GGCGAGAC,0.168
22,GACGTGCC,-0.165
23,ACCGAAAG,-0.0907
24,GCTCCCGA,-0.0303
25,CGGTCAAA,-0.043

row,Sequence,binding signal [E-score]
1,AATGATTC,-0.259
2,ATTGATGC,-0.00877
3,ACAGGATC,-0.149
4,AGACTTAG,-0.136
5,AGGGTGGG,0.176
6,CTTTAACA,0.0423
7,GACTTAGC,-0.19
8,AATAACCC,0.0915
9,CAACTGGC,-0.156
10,ATATTCCA,-0.111
11,ATGGCATG,-0.251
12,CGTTAGCA,0.0646
13,CGTTGAAG,-0.126
14,CTCCGCCC,0.0872
15,GGGGAACA,0.0837
16,AACGCGAT,-0.201
17,AGTGCACT,-0.0159
18,CAAGCCTG,-0.148
19,CCTCTGCG,-0.0245
20,GTAGCGTA,0.135
21,AGTAGATA,-0.104
22,AATTTCCT,-0.128
23,CGCGATGC,-0.295
24,CACAACTG,0.179
25,AACGGCGA,-0.166

row,Sequence,binding signal [E-score]
1,CGTTCTCA,-0.033
2,AAACATAA,-0.165
3,GCAAGGAC,-0.123
4,TACGCCGA,0.0489
5,GACGTTCC,-0.297
6,TCGCTTAA,-0.106
7,AGGACATA,-0.114
8,CCGTCTTC,-0.116
9,ACAACTTG,-0.0779
10,CGCTGCGC,-0.165
11,CTCCCCGA,-0.0609
12,ACCAATAG,0.0812
13,GGAACTCC,-0.0751
14,CTAGCTTC,-0.277
15,ATTACCAA,0.00112
16,ACCGTAGG,0.0409
17,ATGAGCTC,-0.131
18,ACCTTCCC,0.121
19,ATGCCGAC,0.0804
20,AGCAATAT,-0.179
21,AGCGGTGG,-0.154
22,AATCTTGC,-0.35
23,CGAAATTC,-0.0772
24,CACGTTGG,-0.00579
25,AGCCAGTA,-0.0596

row,Sequence,binding signal [E-score]
1,GATGTGCA,-0.14
2,TCCCTAGA,0.0649
3,AAGAGTCT,-0.163
4,CGATAGAC,0.00308
5,ACGGAACG,0.0307
6,GCATGCGA,-0.0881
7,CCCTGAAA,0.0739
8,AAATGTAG,-0.323
9,AAACATCG,-0.161
10,AATCTTAA,-0.208
11,CCCACCGC,-0.0285
12,GTATGAAC,0.0747
13,ACTTCTGA,-0.0426
14,GGTGCACC,0.353
15,CGGCGATA,-0.0491
16,GCTCGCAA,-0.112
17,CTTATTAC,-0.00737
18,CGATAGTC,-0.0629
19,AGAAAAAC,-0.149
20,CCAGGCGC,0.0378
21,AGTCAAGG,-0.117
22,GGCCGAAC,-0.0884
23,ACAAGCGA,-0.0817
24,AGTGGTGA,-0.0871
25,ACCGTAGC,-0.0811

row,Sequence,binding signal [E-score]
1,CTACTCCC,0.228
2,AGATTGCC,-0.282
3,AGCTGAAG,-0.239
4,ACACCAGA,0.472
5,AGTCATGG,-0.0684
6,CCAGGTGC,0.128
7,AGAAGTGC,0.0438
8,CCGCGAGA,-0.113
9,CCGAAGTC,-0.0815
10,AAGGCTGG,-0.168
11,TACACCGA,0.485
12,GAGCGGCA,-0.108
13,ATTACAGG,-0.157
14,TTATAGAA,-0.113
15,ACCCATCG,0.179
16,GGATGCTA,-0.15
17,ACGGACTC,-0.0567
18,ACCTCGGA,0.175
19,AAGGGGCG,0.0295
